Measurements: PubChem BioAssay AID651820 (National Center for Advancing Translational Sciences (NCATS), 2012)
Screen size: about 340,000 compounds; about 12,000 (3.5%) were called active. The inconclusive results got no clear call from the source; some entries with a clear call stand among them for comparison. Calls come from the whole dose curve; as a rule, active = well fitted inhibition curve with a large enough effect; inconclusive = small, poorly fitted or top-dose-only effect, or another doubt; inactive = no such curve, though single readings can be large or run the other way. No potency is given beside an inconclusive call; the fits are too rough.

experiment: qHTS Assay for Inhibitors of Hepatitis C Virus (HCV); settings: Huh7.5.1 HCVcc-Cre (HCVcc is cell-culture hepatitis C virus) infection, luciferase reporter, 44 h; activity change, negative = inhibition: at 41.8 µM (top of the series)
Summary of the method: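 After 44 h co-culture of compound, cells and HCVcc-Cre (~0.5 moi), substrate is added for 15 min at room temperature and luciferase measured over 15 sec. Cells were seeded at 1,000/well and pre-cultured 4 h.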
% is set by controls: 0 for no effect and ±100 for the full control effect; potency is the fitted concentration of half-maximal effect; tags give direction and shape of the fitted curve.

| Structure (SMILES) | Potency | activity change, negative = inhibition |
| --- | --- | --- |
| S=c1[nH]nc(-c2ccc3ccccc3n2)n1-c1ccc(Cl)cc1 | inactive | – |
| O=C(NCc1ccncc1)Nc1ccccc1 | inactive | – |
| Cc1ccc(C)c(OCCn2cc(/C=C(\C#N)C(=O)NCc3cccs3)c3ccccc32)c1 | inactive | – |
| CC(c1nnc(SCC(=O)Nc2ccc3[nH]c(=O)[nH]c3c2)n1Cc1ccccc1)N(C)C (stereo not given) | inactive | – |
| Brc1ccc(-c2csc(NNC3=NCCCCC3)n2)cc1 | inconclusive [inhibitor, single point] | – |
| Cc1ccccc1NC(=S)N(C)C1(c2ccccc2Cl)CCCCC1=O (stereo not given) | inconclusive [inhibitor, partial curve, poor fit] | – |
| c1ccc2oc(-c3ccn[nH]3)cc2c1 | inactive | – |
| Cc1cs/c(=N\N=C\c2ccc(O)cc2)n1Cc1ccco1 | inconclusive [inhibitor, single point] | – |
| O=C(NCc1cccnc1)c1ccc(-c2cccc(Cl)c2Cl)o1 | – | inconclusive: -35.4% [inhibitor] |
| CCCn1nc(-c2ccccc2)c2nc3ccccc3nc21 | inactive | – |
| COc1ccc(N2CCN(C(=O)C(=O)c3cn(CC(=O)N4CCCCCC4)c4ccccc34)CC2)cc1 | inconclusive [inhibitor, partial curve] | – |
| CCOC(=O)C(C)Sc1nc2c(c(-c3cccs3)c1C#N)CCC2 (stereo not given) | inconclusive [inhibitor, single point] | – |
| Cc1ccc(C)n1-n1c(C)nc2scc(-c3ccccc3)c2c1=O | inconclusive [inhibitor, partial curve] | – |
| CC1CCCN(C(=O)c2cn(-c3ccccc3)nc2-c2cccnc2)C1 (stereo not given) | inconclusive [inhibitor, partial curve] | – |
| O=C(Nc1nc(-c2ccccc2)ns1)c1ccncc1 | inactive | – |
| CCOC(=O)CC1CCCCN1C(=O)CCCn1nnnc1CN1CCOCC1 (stereo not given) | inactive | – |
| CC(=O)c1ccc(NC(=O)C(Cc2ccccc2)NC(=O)c2ccco2)cc1 (stereo not given) | inactive | – |
| CCOc1cc(/C=N/O)ccc1OCc1ccc(C)cc1 | inconclusive [inhibitor, single point] | – |
| Cc1ccc2nc(N(CCCN(C)C)C(=O)c3cc4ccccc4oc3=O)sc2c1 | inconclusive [inhibitor, single point] | – |
| CCCn1c2c(c(O)c(C(=O)Nc3ccc(OCC)cc3)c1=O)CCCC2 | inconclusive [inhibitor, partial curve] | – |
| COc1cc(/C=N/NC(=O)c2ccc(CN3C(=O)c4cccc5cccc3c45)cc2)cc(OC)c1O | inconclusive [inhibitor, partial curve] | – |
| OC(COc1cc(Cl)c(Cl)cc1Cl)CN1CCN(c2ncccn2)CC1 (stereo not given) | inconclusive [inhibitor, partial curve] | – |
| CC(OC(=O)c1ccc(O)cc1)C(=O)Nc1ccc(Oc2ccccc2)cc1 (stereo not given) | inconclusive [inhibitor, single point] | – |

| Structure (SMILES) | Potency | activity change, negative = inhibition |
| --- | --- | --- |
| CN(CC(=O)Nc1cccc(S(=O)(=O)N2CCCCC2)c1)Cc1ccc(F)cc1 | inconclusive [inhibitor, partial curve] | – |
| CCOC(=O)c1c(N)sc2c(OCC)c(Br)ccc12 | active: 10 µM | – |
| O=C(N/N=C/c1ccc(N2CCCC2)c([N+](=O)[O-])c1)c1cccnc1 | inconclusive [inhibitor, partial curve, poor fit] | – |
| Cc1ccc(C(C(=O)NCC2CCCO2)N(Cc2ccccc2)C(=O)c2ccc(-c3ccccc3)[nH]2)o1 (stereo not given) | inconclusive [inhibitor, single point] | – |
| COC(=O)c1c(NC(=O)Cc2ccccc2)sc(C)c1C | inconclusive [inhibitor, single point] | – |
| CCc1nc(SCC(=O)c2cccs2)c2oc3ccccc3c2n1 | inconclusive [inhibitor, full curve] | – |
| COc1ccc(C)cc1NC(=O)NNC(=O)C(C)Oc1ccc([N+](=O)[O-])cc1 (stereo not given) | inconclusive [inhibitor, full curve, poor fit] | – |
| COc1ccc(CNC(=O)C2CCC(CNS(=O)(=O)c3ccc(C)cc3)CC2)cc1 (stereo not given) | inactive | – |
| CCc1ccc(N2C(=O)C(Cl)=C(N3CCOCC3)C2=O)cc1 | inactive | – |
| O=C(c1ccc2c(c1)OCCO2)C1CCN(C(=O)c2ccc(F)cc2)CC1 | inconclusive [inhibitor, partial curve] | – |
| COc1ccc(NC(=O)CSCC(=O)N(C)CCOc2ccc(Cl)cc2)cc1 | inconclusive [inhibitor, single point] | – |
| CN(C)c1ccc(-n2cccc2/C=C/[N+](=O)[O-])cc1 | active: 10 µM | – |
| COc1cccc(OCCNC(=O)Nc2cc(F)c(F)cc2Cl)c1 | inconclusive [inhibitor, single point] | – |
| CC1(C)CC(=O)C2=C(C1)C(c1cn(-c3ccccc3)nc1-c1ccccc1)C(C#N)=C(N)O2 (stereo not given) | inconclusive [inhibitor, partial curve] | – |
| COc1ccc(-c2csc(NC(=O)CSc3ncn[nH]3)n2)cc1OC | inactive | – |
| O=C(N/N=C/c1ccccn1)c1ccc(NC(=O)c2ccccc2Cl)cc1 | inconclusive [inhibitor, single point] | – |
| CCc1nc2ccc(C(=O)Nc3cccc(C(C)=O)c3)cc2nc1CC | inconclusive [inhibitor, full curve] | – |
| COC(=O)N/N=C/c1cn(Cc2ccc(Cl)cc2Cl)c2ccccc12 | inconclusive [inhibitor, partial curve] | – |
| COc1ccc(Cl)cc1C(=O)CSc1nc(N)cc(N)n1 | inconclusive [inhibitor, single point] | – |
| CC(Sc1ncnc2sccc12)C(=O)Nc1ccc(S(=O)(=O)N2CCOCC2)cc1 (stereo not given) | inactive | – |
| Cc1cccc(CN2C(=O)c3ccccc3Sc3ccc(C(=O)NCCCN4CCOCC4)cc32)c1 | inactive | – |
| COCCCn1c(SCC(=O)c2ccccc2)nc2ccccc2c1=O | inconclusive [inhibitor, partial curve] | – |
